Assay results from PubChem BioAssay AID463173 (ICCB-Longwood Screening Facility, Harvard Medical School, 2010).
The campaign covered roughly 52,000 compounds. About 1,700 (3.3%) were called active. No stated cut-off is given here; in the data, active means survival mostly below about 52% (no sharp cut-off); inactive means mostly above about 56%. Some of the results follow.

Tested on: Wild type
Assay: S. aureus survival, RN4220 and DeltatarO strains – OD600, teichoic acid synthesis inhibitors, primary screen (AID 463173)
Conditions: S. aureus RN4220 wild type/DeltatarO growth, OD600, 18 h, stronger effect = lower value, screened at 18.75 µg/mL (by protocol)

| Structure (SMILES) | survival |
| --- | --- |
| COc1cc(Cn2c(=O)sc3ccccc32)ccc1OC(C)C | inactive: 41% |
| Cc1ccc(-c2nc3cc(C(C)C)ccc3o2)cc1NC(=O)c1cccs1 | inactive: 72% |
| COc1cccc(NC(=O)CCNS(=O)(=O)c2ccc(Br)s2)c1 | inactive: 71% |
| COc1ccc(CNC(=O)Cc2csc3ccccc23)cc1OC | inactive: 78% |
| CCc1nn(CC(=O)N2CCCCC2)c(=O)c2cc3sccc3n12 | inactive: 65% |
| Nc1ccc(S(=O)(=O)NCc2ccncc2)cc1 | inactive: 99% |
| CC1=CC(C)C2C(=O)N(c3ccccc3)C(=O)C2C1 (stereo not given) | inactive: 111% |
| CC(NC(=O)c1cc(Sc2ccc(F)cc2F)nc2ccccc12)c1ccccc1 (stereo not given) | inactive: 73% |
| COc1cc(Br)c(/C=C(\C#N)c2nc3ccccc3[nH]2)cc1OC | inactive: 136% |
| CCc1ccccc1NC(=O)C1CCC(CNS(=O)(=O)c2ccc3c(c2)CC(C)N3C(C)=O)CC1 (stereo not given) | inactive: 100% |
| Cc1cc(C(=O)NCC(=O)O)c(C)o1 | inactive: 112% |
| Cc1ccc(N2C(=O)CSC23C(=O)N(CC(=O)NC2CCCCC2)c2ccccc23)cc1 (stereo not given) | inactive: 85% |
| CC(C)OCCCNC(=O)c1ccc(-n2c(-c3ccccc3)cc3c2CCCC3)cc1 | inactive: 97% |
| CC(C)CN1CCc2nc(N3CCN(c4ncccn4)CC3)ncc2C1 | inactive: 75% |
| COc1cccc(C(=O)NCC(c2ccc(N(C)C)cc2)N2CCCC2)c1OC (stereo not given) | inactive: 87% |
| COc1ccc2nc(NC(=O)c3nc(SCc4ccc(F)cc4)ncc3Cl)sc2c1 | inactive: 92% |
| Cc1cn2c(=O)c(S(=O)(=O)NCCc3ccccc3)c(C)nc2s1 | inactive: 86% |
| CCOc1ccc(-c2nnc(SCC(=O)NCCC(C)C)nc2-c2ccc(OCC)c(OC)c2)cc1OC | inactive: 110% |
| COc1ccccc1CNCC(=O)Nc1cc(C)on1 | inactive: 104% |
| COc1ccc2nc(SCC(=O)c3c(C)[nH]c4ccccc34)nc(C)c2c1 | inactive: 82% |
| CCOc1ccc(OCC)c(NC(=O)C2CCN(S(=O)(=O)c3ccc(Br)s3)CC2)c1 | inactive: 77% |
| O=C(COC(=O)CCCC1=NS(=O)(=O)c2ccccc2N1)Nc1ccc(Br)cc1 | inactive: 81% |
| O=C(Nc1ccc(F)cc1)[C@H](CSCc1ccccc1)N1Cc2ccccc2C1=O | inactive: 75% |

| Structure (SMILES) | survival |
| --- | --- |
| Cc1ccc(N2CCN(C(=O)Cc3c(C(=O)O)c(C)cn3C)CC2)c(C)c1 | inactive: 71% |
| Cc1ccc(S(=O)(=O)c2nnn3c2nc(N2CCN(c4ccc(F)cc4)CC2)c2cc(Cl)ccc23)cc1C | inactive: 90% |
| Cc1cccc(NC(=O)N2CCc3c(sc4c3CCCC4)C2c2ccc(F)cc2)c1 (stereo not given) | inactive: 32% |
| COc1cccc(-n2c(=O)c3c(C)c(C(=O)N(C)C)sc3n(CC(=O)NCCc3ccc(OC)c(OC)c3)c2=O)c1 | inactive: 73% |
| CCc1ccc(NC(=O)CSc2nc3nccnc3c(=O)n2CCc2c[nH]c3ccccc23)cc1 | inactive: 113% |
| COc1ccc(-c2nc(C)c(CCNC(=O)Cc3ccc(F)cc3)s2)cc1OC | inactive: 84% |
| CCc1ccc(NC(=O)C2CCN(C(=O)N3CC(CC)Oc4ccccc43)CC2)cc1 (stereo not given) | inactive: 66% |
| COC(=O)C(CCSC)NC(=O)c1c(C)oc2ncn(CC(C)C)c(=O)c12 (stereo not given) | inactive: 69% |
| Cc1ccc(NC(=O)C(=O)NCC(c2cccnc2)N2CCN(C)CC2)cc1F (stereo not given) | inactive: 86% |
| Cc1c(Cl)cccc1NC(=O)CSc1ncccc1C(=O)Oc1ccccc1Cl | inactive: 94% |
| CCOC(=O)c1ccc(NC(=O)c2ccc3c(c2)NC(=O)c2ccccc2S3)cc1 | inactive: 93% |
| Cc1nc2ccccc2c(=O)n1NC(=O)c1ccccc1 | inactive: 96% |
| COc1cccc(C(=O)Nc2ccc(-c3cn4cccnc4n3)cc2)c1OC | inactive: 133% |
| CCOc1ccc(NC(=O)Cn2ccn(-c3ccc(F)c(F)c3)c(=O)c2=O)cc1 | inactive: 117% |
| COc1ccc(CNC(=O)c2cccc(-n3cnc4cccnc43)c2C)cc1 | inactive: 72% |
| Cc1ccc(N2C(=O)c3[nH]nc(-c4ccc(Cl)cc4)c3C2c2ccc(F)cc2)cc1 (stereo not given) | inactive: 36% |
| COc1cc2ccccc2cc1C(=O)Nc1ccc(Cl)c(-c2nc3ccccc3o2)c1 | inactive: 41% |
| Cc1ccc2c(c1)cc(CN(Cc1ccco1)C(=O)c1ccccc1)c1nnnn12 | inactive: 95% |
| CCOCCSc1c(C)cnc2c1c(=O)n(C)c(=O)n2C | inactive: 57% |
| CCC(C)NC(=O)c1ccc2nc(Cc3ccc(OC)cc3)oc2c1 (stereo not given) | inactive: 71% |
| COc1ccc(Cc2nnc(SCC(=O)Nc3ccc(S(=O)(=O)N4CCCCCC4)cc3)o2)cc1 | inactive: 112% |
| CCn1ccc2cc(S(=O)(=O)N3CCC(C(=O)NCCc4ccc(C)cc4)CC3)ccc21 | inactive: 71% |
